# Laboratory results as given in PMC4336329 (PLoS ONE, 2015).
# About 2,200 (0.71%) of roughly 310,000 compounds showed an effect of 50% or more. The effect is printed as a negative number. The list shows a part of the results.
# Molecular target: human ether-à-go-go-related gene (hERG) potassium channel (human, UniProt Q12809)
# Assay: primary screen, population patch clamp on CHO cells stably expressing hERG
# human ether-à-go-go-related gene (hERG) potassium channel, sequence (Q12809 whole entry, looked up): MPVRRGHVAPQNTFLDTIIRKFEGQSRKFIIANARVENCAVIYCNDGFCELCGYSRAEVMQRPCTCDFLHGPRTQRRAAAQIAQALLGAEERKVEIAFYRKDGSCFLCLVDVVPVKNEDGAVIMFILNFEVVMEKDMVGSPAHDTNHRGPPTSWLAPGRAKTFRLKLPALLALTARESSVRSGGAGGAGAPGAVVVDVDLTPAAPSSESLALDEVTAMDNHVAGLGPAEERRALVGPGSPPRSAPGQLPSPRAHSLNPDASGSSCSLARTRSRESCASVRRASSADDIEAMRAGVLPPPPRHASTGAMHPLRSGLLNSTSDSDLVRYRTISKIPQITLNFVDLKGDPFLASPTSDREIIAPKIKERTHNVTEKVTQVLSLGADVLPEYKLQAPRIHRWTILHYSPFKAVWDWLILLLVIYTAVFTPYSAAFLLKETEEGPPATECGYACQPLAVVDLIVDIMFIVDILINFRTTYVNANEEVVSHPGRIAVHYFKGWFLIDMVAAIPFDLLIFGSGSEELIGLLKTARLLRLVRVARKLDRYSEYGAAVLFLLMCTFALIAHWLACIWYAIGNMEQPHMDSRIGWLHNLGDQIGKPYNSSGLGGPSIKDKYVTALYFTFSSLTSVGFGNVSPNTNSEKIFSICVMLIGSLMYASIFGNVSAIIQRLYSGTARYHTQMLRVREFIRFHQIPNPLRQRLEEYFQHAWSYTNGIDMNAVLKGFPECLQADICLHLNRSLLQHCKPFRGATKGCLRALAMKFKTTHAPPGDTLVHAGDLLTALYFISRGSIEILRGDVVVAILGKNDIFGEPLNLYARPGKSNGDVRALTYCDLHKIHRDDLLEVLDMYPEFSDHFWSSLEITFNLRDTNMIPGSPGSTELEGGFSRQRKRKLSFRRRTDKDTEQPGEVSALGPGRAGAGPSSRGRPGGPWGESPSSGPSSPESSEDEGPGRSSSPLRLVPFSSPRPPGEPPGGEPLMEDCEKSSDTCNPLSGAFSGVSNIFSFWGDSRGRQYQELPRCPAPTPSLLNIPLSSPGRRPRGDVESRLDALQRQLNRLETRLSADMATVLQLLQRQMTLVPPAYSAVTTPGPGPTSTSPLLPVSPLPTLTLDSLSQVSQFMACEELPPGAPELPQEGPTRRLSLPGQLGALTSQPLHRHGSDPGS
row,Compound,"hERG current change (%, negative = inhibition) at 1uM [%]"
1,CCCn1c2ccc(F)cc2c2nnc(SCCN3CCCCC3)nc21,-33.3
2,Nc1cccc(-n2cccc2)c1,16.6
3,CN(C)CCNc1cnn(-c2ccccc2)c(=O)c1Cl,11.8
4,Cc1ccc(NC(=O)CSc2cccc3cccnc23)c(C)c1,13.5
5,O=C1C(C23CC4CC(CC(C4)C2)C3)C(=O)N(c2ccccc2)N1c1ccccc1,8.68
6,COc1cccc(-n2nnnc2SCC(=O)NCCc2ccccc2)c1,4.57
7,CSc1nnc(-c2ccc(Cl)cc2Cl)o1,10.3
8,Cc1ccc(S(=O)(=O)c2c(C)nn(C(C)(C)C)c2OC(=O)C2CCCC2)cc1,2.19
9,CCC(=O)c1ccc(-c2ccccc2)cc1,13.8
10,Cn1c(=O)c2c(ncn2CC(COCc2ccccc2)OCc2ccccc2)n(C)c1=O (centres unmarked),10.2
11,C/C(=N\NC(=S)NCCc1ccccc1)c1ccc(Cl)cc1,7.8
12,COc1cc2c(c(OC)c1OC)-c1ccc(C(=O)O)cc1[C@@H](NC(C)=O)CC2,7.51
13,CCCCNc1cc(F)nc(N)n1,6.13
14,COc1ccc(CCNC(=O)COc2ccc(S(=O)(=O)N3CCOCC3)cc2C)cc1,2.43
15,Cc1ccc(S(=O)(=O)N2CCOCC2)cc1C(=O)OCc1nnc(-c2ccccc2)o1,-12
16,O=C(NCc1ccccc1)C1(CC2CC(c3ccccc3)=NO2)CCNCC1 (centres unmarked),13.1
17,CC1CCN(C(=O)c2cccc(S(=O)(=O)N3CCN(c4ccccc4)CC3)c2)CC1,7.37
18,CN(Cc1ccccc1)Cc1nc2c(c(=O)n(C)c(=O)n2C)n1CCCc1ccccc1,-0.945
19,CCOC(=O)C1CCN(c2ncnc3c2c(-c2ccccc2)cn3-c2ccc(C)cc2)CC1,11.5
20,CCOc1ccc(NC(=O)Nc2cc(C)on2)cc1,11.2
21,Cc1cccc(C)c1OCCn1nnc2ccccc21.Cl,11.9
22,Cc1ccc2[nH]c(CNC(=O)c3ccc(F)cc3)cc2c1,15.3
23,O=[N+]([O-])c1ccc(N2CCN(CCO)CC2)cc1NCc1ccco1,0.474

row,Compound,"hERG current change (%, negative = inhibition) at 1uM [%]"
1,COc1ccc(C)cc1S(=O)(=O)N1CCC(C(=O)NC2CCCC2)CC1,14
2,CCOC(=O)c1ccccc1NC(=O)COC(=O)CCC1CCCC1,-1.84
3,O=C1C2CCCCC2C(=O)N1Cc1ccccc1 (centres unmarked),10.5
4,CC(C)(C)CN1C(N)=NC[C@H]1Cc1ccc(O)cc1,13.3
5,Cc1nc(N2CCOCC2)nc(N2CCCC2)c1[N+](=O)[O-],7.42
6,O=C(NCCc1ccc(F)cc1)NC12CC3CC(CC(C3)C1)C2,10.3
7,CCN(CC)CC.COc1ccc(OC)c(-n2c(=S)[nH]c3c(sc(=S)n3-c3ccccc3C)c2=O)c1,8.87
8,COc1cc(C(=O)NCC(=O)N2CC=C(c3ccccc3)CC2)cc(OC)c1OC,-23.2
9,Cc1cc(NC(=O)COC(=O)c2ccc(S(=O)(=O)N3CCCC3)cc2)no1,12.3
10,CN(C)S(=O)(=O)c1ccc(N2CCCC2)c(C(=O)N2CCN(c3ccc([N+](=O)[O-])cc3)CC2)c1,-84
11,C=CCNC(=O)c1ccc(Cn2cc(C(F)(F)F)ccc2=O)cc1,9.57
12,Cc1cccc(NC(=O)CSCC(=O)Nc2ccccc2N2CCCCC2)c1,1.97
13,CCOC(=O)C(=O)Nc1ccc(S(=O)(=O)N2CCOCC2)cc1OC,6
14,COc1ccc(S(=O)(=O)NNc2nc(C)cc(C)n2)cc1[N+](=O)[O-],11.1
15,CC1(C)C(=O)OC(c2ccccc2)C2(CCCC2)C1=O (centres unmarked),9.99
16,Cc1ccc(S(=O)(=O)CCC(=O)OCC(=O)c2c(C)[nH]c3ccccc23)cc1,9.5
17,FC(F)(F)c1cccc(Oc2cc(C(F)(F)F)nc(-c3ccccn3)n2)c1,2.26
18,CCn1c(N)c(C(=O)NC)sc1=S,-1.43
19,O=C(C1CCCN(Cc2ccccc2[N+](=O)[O-])C1)N1CCCCC1.O=C(O)C(=O)O (centres unmarked),14.8
20,CN1C(=O)[C@@H]2[C@H](C1=O)[C@@H]1C(=O)Nc3ccccc3C(=O)N1[C@@H]2c1ccc(F)cc1,9.59
21,Cc1nnc2n1N=CC=C(C(C)(C)C)S2,4.37
22,CCC(Oc1ccccc1)C(=O)N1CC(C)CC(C)C1 (centres unmarked),18.1
23,CC(C)Nc1nc(NC(N)=S)nc(NC(C)(C)C)n1,7.09

row,Compound,"hERG current change (%, negative = inhibition) at 1uM [%]"
1,S=C(NCc1cccnc1)c1ccccc1,8.35
2,Nc1nc(CSc2ncn(-c3ccccc3)n2)cs1,-0.27
3,CCCN1CCC(=NNC(=O)CSc2cc(C)c(Br)cc2C)CC1,-4.12
4,COCCn1c(C23CC4CC(CC(C4)C2)C3)n[nH]c1=S,5.55
5,Nc1c(-c2ccc(F)cc2)cnc2ncnn12,12.9
6,COc1ccc(-c2oc3ccc(-c4cc(OC)c(OC)c(OC)c4)cc3c2C#Cc2ccsc2)cc1,11.2
7,CC(NC(=O)c1ccccc1Cl)C(=O)N1CCN(Cc2ccc3c(c2)OCO3)CC1 (centres unmarked),18
8,Fc1ccc(CN2CCN(c3ncccn3)CC2)c(F)c1,18.3
9,C/C(=N/OC(=O)c1c(-c2c(Cl)cccc2Cl)noc1C)c1cnccn1,2.95
10,O=C(CSc1n[nH]c(-c2ccncc2)n1)Nc1ccc(Cl)cc1,10.6
11,CCCC(=O)Nc1ccc2c(c1)c1ccccc1n2CC,13.8
12,O=C(c1ccccc1)N1CCN(C(=O)c2ccc3c(c2)OCCO3)CC1,0.942
13,Cc1nc2nc(C)n(-c3ccccc3)c2s1,14.9
14,Cn1c(SCc2nc3ccccc3s2)nnc1-c1cccs1,-6.17
15,CC(=O)Nc1ccc(SCCCC(=O)c2ccccc2)cc1,11.4
16,Cc1ccc(/C=N/N=C/c2ccc(C)cc2)cc1,9.96
17,CCOC(=O)c1ccc(NC(=O)NC2CCN(CC(=O)NCc3ccc4c(c3)OCO4)CC2)cc1,0.922
18,CCCC1=C(C(=O)OCC)C(c2cccnc2)n2nc(C)nc2N1 (centres unmarked),9
19,CCc1c(C)nc2cc(-c3ccccc3)[nH]n2c1=O,0.298
20,CSc1nnc(Cc2cc(=O)[nH]c(=O)[nH]2)n1-c1cc(C)ccc1C,6.68
21,S=c1[nH]nc(-c2cc(-c3ccccc3)n[nH]2)n1/N=C/c1c2ccccc2cc2ccccc12,4.04
22,CCn1c(=O)c2sccc2n(CC(=O)NCCC2=CCCCC2)c1=O,14.4
23,O=C1c2cccc3cccc(c23)C(=O)N1OS(=O)(=O)c1ccc(Cl)cc1,7.28

row,Compound,"hERG current change (%, negative = inhibition) at 1uM [%]"
1,CCCCC(O)(CCCC)C(=O)NN(C(=O)OC)c1ccc(C)cc1,15.7
2,COCCNC(C(=O)Nc1ccc([N+](=O)[O-])cc1Br)c1ccccc1 (centres unmarked),-20.1
3,Cc1ccc2c(c1)NC(=O)C(CC(=O)NCCCN1CCc3ccccc3C1)O2 (centres unmarked),-58.5
4,O=C(NCc1cccc(F)c1)c1ccc(N2C(=O)Cn3c(cc4sccc43)C2=O)cc1,13.5
5,COc1cc(C(=S)N2CCOCC2)cc(OC)c1OC(=O)c1ccc(F)cc1,11.9
6,Cc1ccsc1CN1CCC(C(=O)NCc2ccccc2Cl)CC1.O=C(O)C(=O)O,2.21
7,COc1ccc(CNc2nc3c(c(=O)[nH]c(=O)n3C)n2Cc2ccccc2)cc1,16.7
8,CCOc1cc(NC(=O)c2ccco2)c(OCC)cc1NC(=O)c1cc(OC)c(OC)c(OC)c1,14.1
9,Cc1oc(-c2ccccc2)nc1C(=O)OCC(=O)NC(=O)NCC(C)C,16.6
10,O=[N+]([O-])c1ccccc1/C=N/Nc1nc(N2CCCC2)nc(N2CCCC2)n1,27.5
11,COC1(OC)C(/C=C/c2ccc(C)cc2)C(C#N)(C#N)C1(OC)OC (centres unmarked),-9.02
12,CCOC(=O)Cc1csc(NC(=O)CCc2ccc(S(=O)(=O)N3CCOCC3)cc2)n1,8.86
13,O=P(CCC(F)(F)F)(CCC(F)(F)F)CCC(F)(F)F,10.6
14,COc1ccc2oc(=O)c(C(=O)NCc3ccc(F)cc3)cc2c1,6.92
15,CCS(=O)(=O)N1CCC(NC(=O)C(Cc2cc(OC)ccc2OC)NC(C)=O)CC1 (centres unmarked),8.11
16,C=CC[N+]1(CC(=O)NCc2ccc(NC(C)=O)cc2)CCOCC1.[Br-],13.3
17,O=C(CCc1ccc(S(=O)(=O)NCc2ccccc2)cc1)NCc1cccnc1,1.42
18,COc1cc(/C=C2/C(=O)NN(c3ccc(Cl)cc3)C2=O)cc(Br)c1O,16.8
19,COc1ccccc1CCNC(=O)C(=O)Nc1cc2c3c(c1)CC(=O)N3CCC2,1.44
20,COc1cc(C2NC(=O)NC(C)=C2C(=O)OC2CCCCC2)cc(Cl)c1O (centres unmarked),6.98
